Laboratory results as given in PubChem BioAssay AID588855 (National Center for Advancing Translational Sciences (NCATS), 2011).
Values joined by “and” are separate entries in the source; they are usually repeats but may differ in a detail not shown here. Identical values can stand only once. Out of some 410,000 compounds screened, about 5,000 (1.2%) were called active. This list was built around the results that the source calls inconclusive (neither active nor inactive); the mix of calls is not that of the screen. The call rests on the fitted dose curve; in most records, active means well fitted inhibition curve with a large enough effect; inconclusive means small, poorly fitted or top-dose-only effect; inactive means no such curve, though single readings can be large or run the other way. Potencies of inconclusive entries are doubtful fits and often do not repeat. Square brackets hold non-standard residues; d marks the D form. Peptide text beside a SMILES is read from it. * marks the point of attachment. ξ: configuration not given here. Cbz = O=C(OCc1ccccc1)*; OBn = c1ccc(CO*)cc1; ξP = O=C(O)C1CCCN1
Potency means the concentration at half of the fitted maximal effect; tags describe the fitted curve by direction and shape.

Assay: qHTS for Inhibitors of TGF-b; further: nearly all actives have a fitted effect of over 65% in size
Conditions: HepG2 CAGA-GFP TGF-b/SMAD3 reporter, GFP fluorescence, 18 h, TGF-beta stimulated, 500 pg/mL final; series mostly up to 46.1 µM
Method in brief: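 Cell-based qHTS in HEPG2 carrying a CAGA-GFP Smad reporter; compounds added before 500 pg/mL final TGF-beta, 18 h incubation at 37 degrees C, GFP fluorescence quantified per cell by imaging cytometry.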
In the case of `Cc1cc(-c2ccccc2)c(C#N)c(SCC(N)=O)n1`, the Potency is reported as inconclusive: 35.5 µM [inhibitor, single point].
In the case of `O=C(NCCc1ccc(C(F)(F)F)cc1)C1COc2ccccc2O1` (stereo not drawn), the Potency is reported as inconclusive: 35.5 µM [inhibitor, single point].
For `C[C@@H]1CCCCO[C@@H](CN(C)Cc2ccc(Cl)c(Cl)c2)[C@@H](C)CN([C@H](C)CO)C(=O)c2cc(NC(=O)CCC(F)(F)F)ccc2O1`, the Potency was inconclusive: 15.8 µM [inhibitor, partial curve, poor fit].
For `CCOP(=O)(c1ccccc1)c1nc(-c2ccccc2Cl)oc1N1CCCCC1` (stereo not drawn), the Potency was inconclusive: 35.5 µM [inhibitor, single point].
With `O=C(CN1C2=NCCN2c2ccccc21)c1ccc2c(c1)OCO2` the Potency was “inactive”.
With `O=C(c1cccc(S(=O)(=O)N2CCc3ccccc32)c1)N1CCc2ccccc2C1` the Potency was inconclusive: 35.5 µM [inhibitor, single point].
For `Cc1ccc(C(=O)OCC(=O)Nc2sc3c(c2C#N)CCCCC3)cc1NC(=O)c1ccco1`, the Potency was inconclusive: 5.62 µM [inhibitor, single point].
In the case of `CCOc1cccc(NC(=O)C2CC(=O)N(C)C(=Nc3cccc(F)c3)S2)c1` (stereo not drawn), the Potency is reported as inconclusive: 2.51 µM [inhibitor, partial curve, poor fit].
For `Cc1cccc(CN2C(=O)NC(c3ccccc3)(c3ccccc3)C2=O)c1`, the Potency was active: 22.4 µM.
For `COC1CCN(Cc2cn(Cc3ccccc3)nc2-c2cc3ccccc3o2)CC1`, the Potency was inconclusive: 35.5 µM [inhibitor, single point].
With `O=C1c2ccccc2C(O)(c2ccccc2)N1c1ccc([N+](=O)[O-])cc1Cl` (stereo not drawn) the Potency was inconclusive: 1.58 µM [inhibitor, partial curve, poor fit].
For `COc1ccc(CNC(=O)c2ccc(NC(=O)N3CCCCc4ccccc43)cc2)c(OC)c1`, the Potency was inconclusive: 1.41 µM [inhibitor, partial curve, poor fit].
For `COC(=O)N(NC(=O)C(O)(c1ccccc1)c1ccccc1)c1ccc(C)cc1`, the Potency was inconclusive: 15.8 µM [inhibitor, single point].
With `COc1ccc2c(c1OC)C(=O)N1C2SC(C)(C)[C@H]1C(=O)NCC(C)C` (stereo partly drawn) the Potency was “inactive”.
With `CCOc1ccc(NC(=S)N2CCCN(Cc3cc(C)ccc3C)C2)cc1` the Potency was inconclusive: 12.6 µM [inhibitor, partial curve, poor fit].
For `O=C(CSc1nnc(COc2ccc(Br)cc2)o1)NC1CCCCC1`, the Potency was “inactive”.
In the case of `Cn1nc(CC(=O)NC2CCCCCC2)c2ccccc2c1=O`, the Potency is reported as inconclusive: 11.2 µM [inhibitor, single point].
With `O=C(O)CCc1ccc(-c2ccccc2)o1` the Potency was inconclusive: 2.51 µM [inhibitor, partial curve, poor fit].
With `CC1CCc2[nH]c3ccc(C(=O)NCC4CCCO4)cc3c2C1` (stereo not drawn) the Potency was “inactive”.
For `Cc1ccc(CN2CCc3nc(N4CCN(c5ccccc5F)CC4)ncc3C2)s1`, the Potency was inconclusive: 15.8 µM [inhibitor, single point].
With `CC1(C)Cc2ccccc2C(/C(=N/O)C(N)=O)=N1` the Potency was “inactive”.
For `CCN1CCCC1CNC(=O)C(NC(=O)C1CCC(C)CC1)C(C)C` (stereo not drawn), the Potency was inconclusive: 35.5 µM [inhibitor, single point].
For `O=C(NCc1ccccc1F)c1cc2ccccn2n1`, the Potency was “inactive”.
With `O=C1CCCc2ccccc2N1Cc1c(Cl)cccc1Cl` the Potency was “inactive”.
With `COc1ccc(Cl)cc1CC1(C)C(=O)Nc2ccc(-c3ccccc3OC)cc21` (stereo not drawn) the Potency was inconclusive: 17.8 µM [inhibitor, single point].
In the case of `C=C(C)c1cccc(C(C)(C)NC(=O)Nc2ccc(C(C)=O)cc2)c1`, the Potency is reported as “inactive”.
In the case of `COc1ccc2cc(C(=O)C3CCCN(C(=O)c4ccnn4C)C3)ccc2c1` (stereo not drawn), the Potency is reported as inconclusive: 0.631 µM [inhibitor, full curve, poor fit].
In the case of `CCOC(=O)c1sc2ncn(CC(=O)Nc3cc(C)cc(C)c3)c(=O)c2c1C`, the Potency is reported as “inactive”.
With `CCCCCCC(=O)N1C/C=C\C(c2ccc(OC)cc2)N(Cc2ccc(F)cc2)C(=O)C1` (stereo not drawn) the Potency was inconclusive: 14.1 µM [inhibitor, single point] and inconclusive: 22.4 µM [inhibitor, single point].
With `Cc1nn(-c2cc(C(F)(F)F)ccc2Cl)c2nc(C(Cl)(Cl)Cl)[nH]c(=O)c12` the Potency was inconclusive: 35.5 µM [inhibitor, single point].
In the case of `CCN(CC)C(=O)Cn1c(=O)n(CCCCCC(=O)Nc2ccccc2)c(=O)c2sccc21`, the Potency is reported as inconclusive: 6.31 µM [inhibitor, single point].
For `FC(F)(F)c1cnc(N2CCN(C(=S)NCc3ccccc3)CC2)c(Cl)c1`, the Potency was inconclusive: 35.5 µM [inhibitor, single point].
With `O=C(OC(C(=O)NCC1CCCO1)c1ccc(F)cc1)c1cccs1` (stereo not drawn) the Potency was “inactive”.
With `Cc1ccc(-c2nnc(Nc3ccc(O)cc3)c3ccccc23)cc1S(=O)(=O)NC(C)(C)CO` the Potency was inconclusive: 7.94 µM [inhibitor, partial curve, poor fit].
In the case of `Cc1ccc(Nc2nc(CSc3nnnn3-c3ccccc3)cs2)cc1`, the Potency is reported as inconclusive: 35.5 µM [inhibitor, single point].
With `Cc1ccc(NC(=O)C(=O)NCC2CCCN2S(=O)(=O)c2cccs2)cc1C` (stereo not drawn) the Potency was inconclusive: 2.51 µM [inhibitor, full curve, poor fit].
In the case of `CCOc1ccc(S(=O)(=O)N(CC(=O)Nc2ccc(OC)c(Cl)c2)c2ccccc2)cc1`, the Potency is reported as inconclusive: 0.562 µM [inhibitor, full curve].
With `O=C(NCCc1ccccc1)C1CCN(Cc2cccc3ccccc23)CC1` the Potency was “inactive”.
For `C/C(=N\Nc1nc(-c2ccccn2)nc2ccccc12)c1ccc(F)cc1`, the Potency was inconclusive: 2.24 µM [inhibitor, full curve, poor fit].
With `CC(=O)NC(Cc1ccccc1F)C(=O)NC1CCN(C(=O)Nc2ccc(C)cc2)CC1` (stereo not drawn) the Potency was inconclusive: 35.5 µM [inhibitor, partial curve, poor fit].
In the case of `CN(C)CCNC(=O)C1(C)Cc2c(-c3cccc(C(F)(F)F)c3)ccnc2O1` (stereo not drawn), the Potency is reported as “inactive”.
In the case of `CCOC(=O)CC1ON(C)C(=O)N1c1ccc([N+](=O)[O-])cc1` (stereo not drawn), the Potency is reported as inconclusive: 11.2 µM [inhibitor, single point].
For `N#Cc1nc(-c2ccccc2F)oc1N1CCN(C(=O)c2ccco2)CC1`, the Potency was inconclusive: 5.62 µM [inhibitor, single point].
In the case of `CCOc1ccccc1NC(=O)CN(c1cc(C)cc(C)c1)S(=O)(=O)c1c(C)nn(C)c1C`, the Potency is reported as inconclusive: 15.8 µM [inhibitor, single point].
With `O=C(CNC(=O)OCc1ccccc1)NCC(=O)N1CCCC1C(=O)OCc1ccccc1` (stereo not drawn) (Cbz-Gly-Gly-[ξP]-OBn) the Potency was inconclusive: 10 µM [inhibitor, partial curve, poor fit].
In the case of `Cc1ccc(C(=O)OCC(=O)NC2CCCC(C)C2C)s1` (stereo not drawn), the Potency is reported as “inactive”.
In the case of `Cc1cccc(Oc2cc(NC(=O)Cn3cnc([N+](=O)[O-])n3)cc([N+](=O)[O-])c2)c1`, the Potency is reported as inconclusive: 15.8 µM [inhibitor, partial curve].
With `O=C(COc1ccc(S(=O)(=O)N2CCOCC2)cc1Cl)NC1CCCCC1` the Potency was inconclusive: 6.31 µM [inhibitor, single point].
In the case of `CCN(CC)CCOc1ccc(/C(=C(/Cl)c2ccccc2)c2ccccc2)cc1`, the Potency is reported as inconclusive: 35.5 µM [inhibitor, single point] and inconclusive: 28.2 µM [inhibitor, single point].
For `COc1ccc(Nc2cc(C)c3cc(NC(=O)COc4cccc(C)c4)ccc3n2)cc1`, the Potency was inconclusive: 22.4 µM [inhibitor, single point].
With `COCCNC(=O)C1(C)CCN(C(=O)c2ccc(OC)c(F)c2)C1` (stereo not drawn) the Potency was “inactive”.
For `COc1ccc(/C=C(/C(=O)NCc2ccccc2)c2ccccc2)cc1`, the Potency was inconclusive: 8.91 µM [inhibitor, partial curve].
In the case of `COc1ccc2nc(NC(=O)c3nc(S(=O)(=O)Cc4ccc(C)cc4)ncc3Cl)sc2c1`, the Potency is reported as active: 4.47 µM.
For `O=[N+]([O-])c1cc2c(cc1[N+](=O)[O-])OCCOCCOCCOCCO2`, the Potency was “inactive”.
For `Nc1nc(Nc2ccc(Cl)cc2)nc2ccccc12`, the Potency was active: 17.8 µM.
With `Oc1oc(-c2cccc3ccccc23)nc1/C=N/c1nccs1` the Potency was inconclusive: 0.631 µM [inhibitor, partial curve, poor fit].
For `Oc1ccc(C[C@H]2CN([C@@H](Cc3ccc(O)cc3)CN3CCC[C@@H]3CN3C(=S)NC[C@@H]3Cc3ccccc3)C(=S)N2CC2CCCCCC2)cc1`, the Potency was active: 10 µM.
For `NC(=O)c1c(NC(=O)CSc2nnc(-c3ccco3)n2N)sc2c1CCCC2`, the Potency was inconclusive: 3.98 µM [inhibitor, partial curve, poor fit].
With `CN(C)CCNC(=O)c1ccc2c(=O)n(Cc3ccc(Cl)cc3)c(=S)[nH]c2c1` the Potency was inconclusive: 22.4 µM [inhibitor, single point].
With `CC(C)(C)[C@H]1C=C(C(=O)N2CCN(Cc3ccc4c(c3)OCO4)CC2)O[C@@H](OCc2ccc(CO)cc2)C1` the Potency was inconclusive: 35.5 µM [inhibitor, single point].
In the case of `CCc1cccc(NC(=O)CN(C)S(=O)(=O)c2ccc3c(c2)n(C)c(=O)c(=O)n3C)c1`, the Potency is reported as “inactive”.
In the case of `CCOc1cc(C(=O)Nc2ccc3nc(N4CCN(C)CC4)cc(C)c3c2)cc(OCC)c1OCC`, the Potency is reported as inconclusive: 35.5 µM [inhibitor, single point].
In the case of `CCOc1ccccc1NC(=O)c1ccccc1-c1nc(-c2ccccc2OC)no1`, the Potency is reported as “inactive”.
